# Source: PubChem BioAssay AID1159614 (National Center for Advancing Translational Sciences (NCATS), 2016)
# The whole screen tested about 45,000 compounds, of which about 65 (0.1%) were called active. Calls come from the whole dose curve; as a rule, active = well fitted activation curve with a large enough effect; inconclusive = small, poorly fitted or top-dose-only effect; inactive = no such curve, though single readings can be large or run the other way. The list shows a part of the results.
# Target: Galactocerebrosidase (Homo sapiens) (UniProt P54803)
# Assay: A Novel Cell-Based Assay to Identify Small Molecules for B -Galactocerebrosidase; note: 0% is about no effect; nearly all actives have a fitted effect of over 65% in size
# Conditions: 145M-Twi-hGALC-G270D cells (Twitcher mouse brain line with human GALC G270D), HMU-beta-Gal fluorescence, 48 h; activation: at the top concentration
# Description: Lysosomal storage diseases (LSDs) are caused by genetic mutations in genes encoding proteins important for normal lysosomal function. Globoid cell leukodystrophy (GLD), mostly known as Krabbe disease, is a prototype of the neurological LSDs caused by deficiency of beta-galactocerebrosidase (GALC). In brain specimens of GLD patients, psychosine levels are substantially elevated. At elevated concentrations, psychosine becomes cytotoxic to neuronal cells, particularly to oligodendrocytes (OLG), neural cells responsible for myelin formation. Therefore, the biochemical disturbances in GLD are manifested by different degrees of brain demyelination resulting in a broad spectrum of neurological manifestations. Most of the FDA-approved therapies are based on enzyme replacement therapeutic (ERT) agents, which treat non-neurological symptoms of Gaucher disease, Fabry disease, few mucopolysaccharidoses and Pompe disease. Unfortunately, in GLD, a primarily neurological LSD, ERT agents, as large molecular weight molecules unable to cross the blood-brain barrier, which makes this an inefficacious therapeutic approach. In GLD, increasing the residual GALC activity just above the critical threshold (~10% of wild type enzymatic activity), the cytotoxic levels of psychosine will be reduced, avoiding the OLGs apoptosis and the subsequent demyelination process. This will translate in disease stabilization and amelioration of GLD patient symptoms.
# A cell-based assay in 1,536-well plate format was developed to implement a quantitative high-throughput screening (qHTS) assay using GLD-disease relevant cells to identify small molecules that produce enhancements of the residual enzymatic activity levels of mutants GALC found and prevalent in GLD patients. Compounds that are active may therefore have some therapeutic application for GLD. After the treatment of live cells for a determined period, using a fluorescent GALC specific substrate, the mutant residual GALC activity is measured. This cell-based qTHS assay was used to screen part of the MLPCN library for small molecule able to increase the mutant GALC enzymatic activity. In this assay, increased fluorescent signal corresponds to enhanced levels of mutant GALC residual enzymatic activity. Activation is the desired outcome for this assay.
# NIH Chemical Genomics Center [NCGC]
# NIH Molecular Libraries Probe Centers Network [MLPCN]
# Assay Submitter (PI): Gustavo Maegawa MD,PhD, University of Florida, Gainesville, FL
# 2)#Two cell lines were established for the assay: 145M-Twi-hGALC-G270D (brain-derived Twitcher cell line stably expressing human GALC-G270D) and 145M-Twi-hGALC-WT (same 145M-Twi stably expressing human GALC wild type). The Twitcher is the murine C57B/6 model for GLD with naturally occurring homozygous nonsense GALC mutation. The 145M-Twi cell line was established at Maegawa lab (Ribbens J et al 2014).
# a.#Media: DMEM/F12 (1:1) with 10% fetal bovine-serum (FBS) with penicillin/streptomycin (PS-1X - 100 I.U./mL of penicillin+100 ug/mL of streptomycin).
# b.#The 6-Hexadecanoylamino-4-methylumbelliferyl-b-D-galactoside (HMU-B-gal) substrate was prepared as per Wiederschain et al 1992. Using 20-mL borosilicate tubes, 2.20 mg of HMU-b-Gal was added in each tube to prepare substrate-film with a final air-nitrogen stream evaporation to remove all diluent solvents.
# c.#The HMUb-Gal substrate buffer consists of 0.2 M Na2HPO4 (sodium phosphate dibasic)/ 0.1 M Citric Acid with the pH adjusted to 5.2 using HCl. Sodium Azide at 0.02% and Sodium Taurocholate (NaTC) at 1 mg/mL were added to this substrate buffer.
# d.#The HMU-b-Gal stopping buffer consist of 0.5 M NaHCO3 (sodium bicarbonate) /0.5 M Na2CO3 (sodium carbonate). […] Triton X-100 at 0.25% was added.
# 4)#Preparation of HMU-b-Gal substrate tubes
# Adding 18.6 mL of the HMUb-Gal substrate buffer to each 20-mL tube (2.20 mg of HMU-b-Gal) will reach a concentration of 0.2 mM. Vortex well the tube until the solution is fully homogenized (clear cloudy solution). […]
# Chain of UniProt P54803 (P54803 whole entry, looked up): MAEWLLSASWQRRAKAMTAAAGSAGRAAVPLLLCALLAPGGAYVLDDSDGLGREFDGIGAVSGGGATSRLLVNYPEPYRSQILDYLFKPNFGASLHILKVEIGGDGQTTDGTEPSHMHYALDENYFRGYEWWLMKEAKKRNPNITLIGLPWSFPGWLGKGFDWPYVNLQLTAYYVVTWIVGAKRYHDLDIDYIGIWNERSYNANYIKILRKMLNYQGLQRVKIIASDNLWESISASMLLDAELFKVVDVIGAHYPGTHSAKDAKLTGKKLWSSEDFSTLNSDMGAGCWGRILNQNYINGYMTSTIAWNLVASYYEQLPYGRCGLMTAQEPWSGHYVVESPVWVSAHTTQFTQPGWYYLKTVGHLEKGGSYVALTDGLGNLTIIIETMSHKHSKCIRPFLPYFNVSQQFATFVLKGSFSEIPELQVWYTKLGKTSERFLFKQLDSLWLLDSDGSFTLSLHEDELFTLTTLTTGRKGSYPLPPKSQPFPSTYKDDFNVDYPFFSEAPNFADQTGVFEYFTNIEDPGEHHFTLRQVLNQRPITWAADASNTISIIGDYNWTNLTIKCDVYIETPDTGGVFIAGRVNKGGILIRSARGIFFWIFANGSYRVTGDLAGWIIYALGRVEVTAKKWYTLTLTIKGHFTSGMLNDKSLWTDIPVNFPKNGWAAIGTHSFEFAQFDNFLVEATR
row,SMILES,activation
1,Cc1ccc(NC(=O)c2cccn(Cc3ccccc3C)c2=O)c(C)c1,inactive: -15.2%
2,COc1cc(N)c(Cl)cc1C(=O)NC1CN2CCC1CC2 (centres undefined),inactive: -11.3%
3,Clc1ccc(C(c2ccc(Cl)cc2)C(Cl)(Cl)Cl)cc1,inactive: -9.92%
4,Fc1cc(Br)ccc1CBr,inactive: -11.2%
5,NN=C(N)N,inactive: -7.41%
6,COc1cc(OC)c(OC)cc1C=O,inactive: -8.18% [at 114 µM]
7,Nc1c(Cl)c(Cl)c(Cl)c(Cl)c1Cl,inactive: -4.67% [at 114 µM]
8,NC(=O)OCCCc1ccccc1,inactive: -17.9%
9,CC(C)c1nn2c(=O)cc(COC(=O)Cc3ccccc3)nc2s1,inactive: -8.34%
10,OC(c1ccccc1)(c1ccccc1)C1CCNCC1,inactive: -17.5%
11,C[C@]12CCC(=O)C=C1CC[C@@H]1[C@@H]2CC[C@]2(C)C(=O)CC[C@@H]12,inactive: -9.52%
12,O=C1CN=C(c2ccccc2Cl)c2cc(Cl)ccc2N1Cc1cccc(Cl)c1,inactive: -36.8%
13,COc1ccc(-n2c(/C=C\c3ccccc3F)nc3ccccc3c2=O)cc1OC,inactive: -14.8%
14,CC(O)CN1CCN(CC(=O)[O-])CCN(CC(=O)[O-])CCN(CC(=O)[O-])CC1.[Gd+3] (centres undefined),inactive: -17%
15,Nc1c(C(=O)Nc2ccc(Cl)c(C(F)(F)F)c2)sc2nc3c(cc12)N1CCC3CC1,inactive: -17.8%
16,COc1cccc(-n2c(/C=C/c3ccccc3O)nc3ccccc3c2=O)c1,inactive: -5.21%
17,CCCCC/C=C\C/C=C\C/C=C\C/C=C\CCCC(=O)NCC(=O)O,inactive: -14.7%
18,O=C(CBr)Nc1ccc(Cl)cc1C(=O)c1ccccc1F,inactive: -6.82%
19,O=C(N[C@H]1N=C(c2ccccc2F)c2cccc3c2N(CC3)C1=O)c1cc2ccccc2[nH]1,inactive: -16.1%
20,CN1C2CCC(C)(C)C1CC(OC(=O)C(O)(c1cccs1)c1cccs1)C2 (centres undefined),inactive: -18.1%
21,CCCC(C)(COC(N)=O)COC(=O)NC(C)C (centres undefined),inactive: -13.3%
22,Cc1ccc(NC(=O)CN2C(=O)CN=C(c3ccccc3)c3ccccc32)cc1,inactive: -20.6%
23,CCCC1CCCCN1 (centres undefined),inactive: -6.4%
24,CCCCCc1nc2ccccc2c(=O)n1-c1ccc(C)cc1,inactive: -11%
25,Cc1ccccc1-n1nc(C)c2c1NC(=O)CSC2c1ccc(N(C)C)cc1 (centres undefined),inactive: -6.6%
26,CN1CC[C@]23c4c5ccc(O)c4O[C@H]2[C@@H](O)CC[C@H]3[C@H]1C5,inactive: -4.42% [at 114 µM]
27,Cc1ccc(CN2C(=O)c3ccccc3Sc3ccc(C(=O)N4CCC5(CC4)OCCO5)cc32)cc1,inactive: -0.133%

row,SMILES,activation
1,CCN(Cc1ccc(Cl)nc1)/C(=C/[N+](=O)[O-])NC,inactive: -15%
2,Cc1ccccc1Cn1cccc(C(=O)Nc2nc3ccccc3s2)c1=O,inactive: -26.1%
3,CO[C@]12CC[C@@]3(C[C@@H]1[C@](C)(O)C(C)(C)C)[C@@H]1Cc4ccc(O)c5c4[C@@]3(CCN1CC1CC1)[C@H]2O5,inactive: -6.73% [at 114 µM]
4,CCC(=O)O[C@H]1CC[C@H]2[C@@H]3CCC4=CC(=O)CC[C@]4(C)[C@H]3CC[C@]12C,inactive: -6.6%
5,COc1cccc([C@@]2(O)CCCC[C@@H]2CN(C)C)c1,inactive: -9.36%
6,CCCCc1nn2c(=O)cc(COC(=O)Cc3ccccc3)nc2s1,inactive: -3.57%
7,C[C@@H]1CN(C2CCC(C#N)(c3ccc(F)cc3)CC2)CC[C@]1(C(=O)O)c1ccccc1 (some centres undefined),inactive: -6.17%
8,C=Cc1ccc(Cn2c(C)c(CNCCc3cc(OC)ccc3OC)c(C(=O)O)c2C)cc1,inactive: -8.4%
9,CCN1CCCC1CNC(=O)C(O)(c1ccccc1)c1ccccc1 (centres undefined),inactive: -16.1%
10,CCC1(CC)C(=O)NC(=O)NC1=O,inactive: -6.02%
11,C[C@]12CC[C@H]3[C@@H](CCC4=CC(=O)CC[C@@H]43)[C@@H]1CC[C@@H]2OC(=O)CCC1CCCCC1,inactive: -12.7%
12,O=C(CCCN1CCC(n2c(=O)[nH]c3ccccc32)CC1)c1ccc(F)cc1,inactive: -7.12%
13,O=C(Nc1cc(C(F)(F)F)cc(C(F)(F)F)c1)c1cccn(Cc2ccccc2Cl)c1=O,inactive: -8.46%
14,CC(C)(C)c1ccc(C(=O)Nc2ccc(Cl)cc2C(=O)c2ccccc2)cc1,inactive: 5.9%
15,CCc1cc2c(s1)-n1c(C)nnc1CN=C2c1ccccc1Cl,inactive: -10.4%
16,CC(C(O)c1ccccc1)N(C)C/C=C/c1ccccc1 (centres undefined),inactive: -26.4%
17,Cc1cccc(Cc2cnc[nH]2)c1C,inactive: -6.88%
18,CN1C(=O)CCS(=O)(=O)C1c1ccc(Cl)cc1 (centres undefined),inactive: -18.2%
19,NC(=O)CS(=O)C(c1ccccc1)c1ccccc1 (centres undefined),inactive: -10.8%
20,O=C(COc1cc(Cl)ccc1Cl)Nc1ccc(Cl)cc1C(=O)c1ccccc1,inactive: -0.867%
21,CC(C)(C)CC(C)(C)c1ccc(O)cc1,inactive
22,O=P1(N(CCCl)CCCl)NCCCO1 (centres undefined),inactive: -8.07%
23,c1ccc2c(c1)sc1ccccc12,inactive: -15.5%
24,Cc1cccc(CN2CC=C(c3noc(CCC(=O)Nc4ccc(C)c(F)c4)n3)CC2)c1,inactive: -7.9%
25,COc1ccc(NC(=O)c2sc3nc4c(cc3c2N)N2CCC4CC2)cc1OC,inactive: 1.53%
26,CCCCCCCCCC(CC)c1ccc(S(=O)(=O)O)cc1 (centres undefined),inactive: -8.02% [at 114 µM]
27,Oc1ccccc1-c1ccccc1,inactive: -13%
